Where “and” joins values, the source holds several entries; their conditions need not be identical. Equal values may be shown once. The whole screen tested about 420,000 compounds, of which about 50,000 (12%) were called active. Inconclusive results, whose numbers are uncertain, are shown with a selection of clear calls. Calls come from the whole dose curve; as a rule, active = well fitted inhibition curve with a large enough effect; inconclusive = small, poorly fitted or top-dose-only effect; inactive = flat fitted curve, though single readings scatter. No potency is given beside an inconclusive call; the fits are too rough. Some compounds were tested as several samples or in several runs, with calls that do not always agree.
test: qHTS for Inhibitors of human tyrosyl-DNA phosphodiesterase 1 (TDP1): qHTS in cells in presence of CPT; conditions: chicken DT40 Tdp1-/-;hTDP1 cells + 20 nM CPT, ATP luminescence, 48 h; activity change, negative = growth inhibition: at 46.2 µM (top of the series); note: nearly all actives have a fitted effect of over 55% in size
Procedure, shortened: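 Chicken DT40 Tdp1-/- cells stably complemented with human TDP1 were seeded at 400 cells/well in medium containing 20 nM camptothecin, exposed to pin-transferred compounds, and grown at 37 °C for at least 48 hr. Viability was read as ATP luminescence.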
% is set by controls: 0 for no effect and ±100 for the full control effect; potency is the fitted concentration of half-maximal effect; tags give direction and shape of the fitted curve.

Row | Compound | Potency | activity change, negative = growth inhibition
1 | Cc1nnc(SCCn2c(N3CCCCC3)nc3c2c(=O)[nH]c(=O)n3C)s1 | inconclusive [inhibitor, partial curve] | –
2 | CCOC(=O)C1=CCN(S(=O)(=O)c2ccccc2Cl)C1c1ccc(Cl)c(Cl)c1 (configuration not stated) | inconclusive [inhibitor, single point] | –
3 | CCOC(=O)C1=C(C)NC(C)=C(C(=O)OC)C1c1cccc([N+](=O)[O-])c1 (configuration not stated) | active: 19.2 µM and active: 11.9 µM | –
4 | C[C@H](NS(=O)(=O)c1ccc(Cl)cc1)C(=O)OCC(=O)c1ccc[nH]1 | – | inactive: -4.39%
5 | O=C(CSc1cn(CCNC(=O)c2c(F)cccc2F)c2ccccc12)Nc1ccc(F)cc1 | inconclusive [inhibitor, single point] | –
6 | CCOc1ccc(CCNC(=O)COC(=O)c2cccc(S(=O)(=O)N3CCOCC3)c2)cc1OCC | – | inactive: -3.38%
7 | CCOC(=O)c1oc2ccccc2c1NC(=O)c1ccco1 | inconclusive [inhibitor, single point] | –
8 | Cc1nnc(NC(=O)CSc2nccn2Cc2ccc(Cl)cc2)s1 | inconclusive [inhibitor, single point] | –
9 | C[C@@H]1CN([C@@H](C)CO)C(=O)c2cc(NC(=O)c3ccccc3)ccc2O[C@@H](C)CCCCO[C@@H]1CN(C)S(=O)(=O)c1ccc(F)cc1 | inconclusive [inhibitor, single point] | –
10 | Cc1cccc(COCC(Cc2ccccc2)N2CCN(C(=O)c3ccc(Cl)c(Cl)c3)CCC2=O)c1 (configuration not stated) | active: 20.6 µM | –
11 | CCN(CC)C(=O)c1[nH]cnc1C(=O)N[C@@H](C)C(=O)OC(C)(C)C | – | inactive: -2.63%
12 | O=C(NNc1ncnc2ccccc12)c1cccc(Cl)c1 | – | inconclusive: -31.5% [inhibitor]
13 | COc1ccc(/C=N/N2C(=O)c3ccccc3C2=O)cc1 | – | inactive: -14.1%
14 | Cc1cccc(NNC(=S)Nc2c(C)cccc2C)c1 | inconclusive [inhibitor, single point] | –
15 | COc1ccc(CCNS(=O)(=O)c2ccc(S(=O)(=O)N3CCCC3)cc2)cc1OC | inconclusive [inhibitor, partial curve, poor fit] | –
16 | CCCCOc1ccc(S(=O)(=O)NC(=O)C2(C)CCN2C(=O)CCc2ccccc2)cc1 (configuration not stated) | – | inactive: -18.4%
17 | CN(C)S(=O)(=O)c1ccc(NC(=O)CN2CCCC2c2ccc3c(c2)OCCCO3)cc1 (configuration not stated) | inconclusive [inhibitor, partial curve, poor fit] | –
18 | Cc1ccc(-c2c(C(=O)N3CCN(c4cc(Cl)ccc4C)CC3)oc(=O)c3ccccc23)cc1 | inconclusive [inhibitor, single point] | –
19 | CCS(=O)(=O)c1ncc(Cl)c(C(=O)Nc2c(C(=O)Nc3cccc(C)c3)oc3ccccc23)n1 | active: 1.03 µM | –
20 | c1ccc2c(c1)CCc1c-2nc2ccccc2c1N1CCOCC1 | active: 11.6 µM | –
21 | CCc1ccccc1NC(=O)Cc1ccc(NC(=O)N2CCCCc3ccccc32)cc1 | inconclusive [inhibitor, single point] | –
22 | COCc1c(C(=O)N2CCCCCC2)cnn1-c1nccc(-c2cccs2)n1 | – | inactive: -1.24%
23 | CCN(Cc1ccccc1)C(=O)c1cc(S(=O)(=O)N2CCOCC2)ccc1N1CCCC1 | inconclusive [inhibitor, single point] | –
24 | COC(=O)c1sc(=S)sc1C(=O)OC | active: 29.1 µM | –

Row | Compound | Potency | activity change, negative = growth inhibition
25 | COc1ccccc1/C=C\C(=O)O | – | inactive: -7.37%
26 | CCN(CC(=O)Nc1ccc(OC)cc1)C(=O)CSCc1ccc(C)cc1 | – | inconclusive: -33.7% [inhibitor]
27 | O=C(Nc1ccc(F)c(Cl)c1)N1CCC2(CC1)Oc1ccccc1C(=O)N2Cc1ccccc1F | inconclusive [inhibitor, single point] | –
28 | CC(C)(C)NC(=O)C(c1ccc(-c2ccccc2)cc1)n1c(=O)c(-c2ccco2)nc2ccccc21 (configuration not stated) | inconclusive [inhibitor, single point] | –
29 | CCc1cccc(NC(=O)Nc2cccs2)c1 | inconclusive [inhibitor, single point] | –
30 | CC(=O)c1cc(F)c(N2CCN(c3ccc([N+](=O)[O-])cc3F)CC2)cc1C | inconclusive [inhibitor, single point] | –
31 | COc1cc2ccccc2ccc1=NO | active: 16.4 µM | –
32 | Nc1nonc1-n1nnc(C(=O)N/N=C/c2ccc(Br)cc2)c1CSC1=NCCS1 | inconclusive [inhibitor, single point] | –
33 | COc1ccccc1N1CCN(C(CNC(=O)C(=O)NCc2ccc(F)cc2)c2cccnc2)CC1 (configuration not stated) | active: 8.2 µM | –
34 | Cc1noc(C)c1CSc1nc2ccccc2n1C | – | inconclusive: -14.3% [inhibitor]
35 | C[C@H](CO)N1C[C@H](C)[C@@H](CN(C)C(=O)NC2CCCCC2)Oc2ncc(Br)cc2C1=O | – | inactive: -13%
36 | C=CCn1c(=O)c2ccccc2n2c(SC(C)C(N)=O)nnc12 (configuration not stated) | – | inactive: 23.7%
37 | CC1SCCN1S(=O)(=O)c1ccc2ccccc2c1 (configuration not stated) | – | inactive: -21.8%
38 | CCc1ccc(CNCc2ccc(F)cc2)cc1 | – | inactive: -7.38%
39 | CCC(C)Sc1cccc(-c2nc3ccccn3c2NCc2ccccc2)c1 (configuration not stated) | inconclusive [inhibitor, single point] | –
40 | O=C(Nc1ccccn1)c1ccc(C(=O)Nc2ccccn2)cc1 | – | inactive: -9.53%
41 | CSc1nc2ccsc2c(=O)n1-c1ccccn1 | – | inactive: -11.8%
42 | COc1ccc(-c2noc(CN(C(=O)c3ccc4c(c3)OCO4)C(C)C)n2)cc1OC | inconclusive [inhibitor, partial curve] | –
43 | COc1ccc(CCNC(=O)C(NC(=O)OCc2ccccc2)C(C)C)cc1OC (configuration not stated) | – | inactive: 4.08%
44 | Cc1ccc(S(=O)(=O)N2c3ccccc3CC2C)cc1 (configuration not stated) | inconclusive [inhibitor, partial curve, poor fit] | –
45 | CC(NC(=O)c1ccccc1)C(=O)OCC(=O)c1ccc(Br)cc1 (configuration not stated) | – | inactive: 4.21%
46 | CSCCC(C(=O)Nc1c(C)cccc1C)n1c(COc2ccc(C)cc2)nc2ccccc21 (configuration not stated) | active: 11.6 µM | –
47 | COc1cc(C(O)c2nc(-c3cc(F)cc(F)c3)cs2)ccc1F (configuration not stated) | active: 23.1 µM | –

— PubChem BioAssay AID686979 (National Center for Advancing Translational Sciences (NCATS), 2013)
